Data taken from publication PMC4336329 (PLoS ONE, 2015).
About 14,000 (4.5%) of roughly 310,000 compounds showed an effect of 50% or more. The effect is printed as a negative number. The list shows a part of the results.

Biological target: human ether-à-go-go-related gene (hERG) potassium channel (human, UniProt Q12809)
Experiment: primary screen, population patch clamp on CHO cells stably expressing hERG
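Also: peak tail current of the secondary pulse compared with the same well before compound.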

Chain of human ether-à-go-go-related gene (hERG) potassium channel (Q12809 whole entry, looked up): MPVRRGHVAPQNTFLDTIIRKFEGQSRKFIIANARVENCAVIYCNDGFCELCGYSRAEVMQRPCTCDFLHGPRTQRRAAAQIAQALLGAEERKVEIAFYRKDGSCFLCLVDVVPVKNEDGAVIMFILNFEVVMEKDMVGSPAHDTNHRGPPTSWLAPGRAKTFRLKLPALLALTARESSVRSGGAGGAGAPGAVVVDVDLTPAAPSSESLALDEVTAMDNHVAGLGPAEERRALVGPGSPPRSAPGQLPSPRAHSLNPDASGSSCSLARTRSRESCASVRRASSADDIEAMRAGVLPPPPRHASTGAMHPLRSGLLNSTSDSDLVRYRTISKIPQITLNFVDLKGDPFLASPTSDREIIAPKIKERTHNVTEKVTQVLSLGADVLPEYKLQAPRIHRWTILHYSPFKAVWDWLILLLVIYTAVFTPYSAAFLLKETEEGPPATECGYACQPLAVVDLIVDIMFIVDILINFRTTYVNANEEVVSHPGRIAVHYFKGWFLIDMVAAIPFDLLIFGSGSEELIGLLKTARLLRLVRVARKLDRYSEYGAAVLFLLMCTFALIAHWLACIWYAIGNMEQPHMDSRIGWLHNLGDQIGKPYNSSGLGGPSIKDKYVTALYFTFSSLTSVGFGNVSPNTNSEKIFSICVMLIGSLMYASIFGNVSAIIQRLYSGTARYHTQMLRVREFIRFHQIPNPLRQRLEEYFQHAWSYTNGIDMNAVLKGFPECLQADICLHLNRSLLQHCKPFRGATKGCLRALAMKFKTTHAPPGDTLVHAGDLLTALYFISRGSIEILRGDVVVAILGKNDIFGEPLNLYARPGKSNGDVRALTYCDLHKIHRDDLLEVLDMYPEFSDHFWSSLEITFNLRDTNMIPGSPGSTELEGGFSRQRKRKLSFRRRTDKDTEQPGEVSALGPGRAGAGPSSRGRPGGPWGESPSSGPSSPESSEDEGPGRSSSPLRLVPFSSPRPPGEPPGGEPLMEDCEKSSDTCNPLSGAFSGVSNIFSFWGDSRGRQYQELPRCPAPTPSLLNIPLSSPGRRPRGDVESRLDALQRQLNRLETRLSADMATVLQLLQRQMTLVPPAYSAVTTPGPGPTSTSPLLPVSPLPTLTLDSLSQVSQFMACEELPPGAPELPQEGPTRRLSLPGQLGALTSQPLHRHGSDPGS

Row | Compound | hERG current change (%, negative = inhibition) at 10uM
1 | CCOc1ncccc1C(=O)NCc1ccc(OC)cc1 | 5.84%
2 | CC(C)Cc1nnc(NC(=O)CCC(=O)N2CCN(Cc3ccc(Cl)cc3)CC2)s1 | -0.936%
3 | COc1ccc(-n2c(SC)nnc2-c2c[nH]c3ccccc23)cc1 | -0.743%
4 | COc1ccc(N/C=C(\C#N)c2nc3ccccc3n2C)c(OC)c1 | 3.33%
5 | Cc1ccc(C(=O)OCCn2cc(C#N)c(=O)[nH]c2=O)cc1 | 6.61%
6 | CSc1nccc(Oc2cncc(Cl)c2)n1 | 8.61%
7 | CCC(C)(C)NC(=O)CN(C(=O)CCC(=O)Nc1nccs1)c1ccc2c(c1)OCO2 | -19%
8 | COc1ccc(-n2c(CN3CCN(c4ccc(F)cc4)CC3)nc3ccc([N+](=O)[O-])cc3c2=O)c(OC)c1 | -44.6%
9 | C=CCc1ccc(OCC(O)COCC)c(OC)c1 (stereo not shown) | -3.56%
10 | O=C(/C=C/c1ccc(S(=O)(=O)N2CCOCC2)cc1)N1CCN(c2ccc(F)cc2)CC1 | -25.6%
11 | CC(Sc1nnc(-c2cccs2)n1-c1ccccc1)C(=O)NCc1ccc2c(c1)OCO2 (stereo not shown) | -74.8%
12 | COc1ccc(CNCCc2cccc(F)c2)c2ccccc12.O=C(O)C(=O)O | -74%
13 | CCc1ccc(OCC2c3cc(OC)c(OC)cc3CCN2C(C)=O)cc1 (stereo not shown) | -11.5%
14 | O=S(=O)(Cc1cc(-c2ccccc2Cl)no1)c1ccccc1 | -51%
15 | COc1ccc(NS(=O)(=O)c2cccc(C(=O)NCC(c3ccco3)N3CCCC3)c2)cc1 (stereo not shown) | -36.8%
16 | CC(C)N1CCC(N2CCN(Cc3ccc4nonc4c3)CC2CCO)CC1 (stereo not shown) | -27.5%
17 | CCOc1cc(C(N)=O)cc(OCC)c1OCC | 8.44%
18 | O=c1c2ccccc2nc(-c2ccccc2)n1CCN1CCOCC1 | -6.34%
19 | COc1cccc(NC(=O)Cn2cc(C(=O)C3CC3)c3ccccc32)c1 | 0.319%
20 | CCS(=O)(=O)c1ccc(C(=O)Nc2ccccc2)c(Cl)c1Cl | 9.75%
21 | Cc1c(Br)c([N+](=O)[O-])nn1CC(=O)Nc1sc2c(c1C(=O)OC(C)C)CCCC2 | -6.86%
22 | COCC(C)n1c(SCC(=O)Nc2nccs2)nc2ccccc2c1=O (stereo not shown) | 14.5%
23 | Cc1cccc(N2C(=O)c3ccc(Br)cc3C2=O)n1 | -8.92%
24 | CNC(=S)N(CCc1c(C)[nH]c2ccc(C)cc12)Cc1ccco1 | -12.1%
25 | Cc1ccc(NS(=O)(=O)c2cccc(C(=O)NCC(c3ccc(F)cc3)N3CCOCC3)c2)cc1 (stereo not shown) | -16.8%
26 | CCOC(=O)c1c(C)[nH]c(C2=NNC(=Nc3ccccc3OC)SC2)c1C | 2.99%
27 | O=C(CCN1C(=O)c2ccccc2C1=O)NCc1cccc(Cl)c1 | -42%
28 | Cc1cc(NC(=O)CSc2nnc(C3COc4ccccc4O3)n2N)no1 (stereo not shown) | 1.68%

Row | Compound | hERG current change (%, negative = inhibition) at 10uM
29 | Cc1nn(-c2ccccc2)c(N)c1C(O)(CC(=O)C(F)(F)F)C(F)(F)F (stereo not shown) | 7.54%
30 | CCCCOP(=O)(c1ccc(N(C)C)cc1)C(O)c1c(Cl)cccc1Cl (stereo not shown) | -18.9%
31 | Cc1cccc(CN2C(=O)/C(=C\c3ccc(C(=O)NCCCN4CCN(C)CC4)cc3)Oc3ccccc32)c1 | -4.13%
32 | CC(NC(=O)Cn1nc(C(=O)O)c2ccccc2c1=O)C12CC3CC(CC(C3)C1)C2 (stereo not shown) | -37.4%
33 | CC1CN(S(=O)(=O)c2cccc(C(=O)NCc3ccco3)c2)CC(C)O1 (stereo not shown) | -2.88%
34 | CC(CCc1ccccc1)NC(=O)COC(=O)CC1CC2CCC1C2 (stereo not shown) | -6.07%
35 | COc1ccccc1Nc1nc(-c2cccc([N+](=O)[O-])c2)nc2ccccc12 | 0.938%
36 | COc1cccc(/C=N/NC(=O)Cn2cnc3c2c(=O)n(C)c(=O)n3C)c1OC | 10.6%
37 | O=C(c1cnn2c(C(F)F)cc(C3CC3)nc12)N1CCCC1 | -4.75%
38 | O=C(CCc1ccccc1)Nc1cc2c3c(c1)CCC(=O)N3CCC2 | -29.5%
39 | CNC(=S)N/N=C/c1ccccc1Cl | 2.08%
40 | Cc1nc2ccc(NC(=O)CCS(=O)(=O)c3ccccc3)cc2s1 | 9.34%
41 | COC(=O)Cc1ccc(NC(=S)N2CCN(c3cccc(O)c3)CC2)cc1 | 15.5%
42 | Cc1ccc(CNC(=O)c2ccc3c(c2)NC(=O)C(N2CCOCC2)S3)cc1 (stereo not shown) | -2.92%
43 | Cc1ccc(C(=O)N/N=C\c2cccn2C)cn1 | 22.4%
44 | COc1ccc(OC)c(NC(=O)COC(=O)Cc2ccc(-c3ccccc3)cc2)c1 | -6.13%
45 | CCCC(=O)Nc1ccc(-c2csc(-c3cccnc3)n2)cc1 | -24.6%
46 | CCOC(=O)c1csc(NC(=O)c2ccc(S(=O)(=O)N(C)C)cc2)n1 | -20.9%
47 | Cc1ccc(Cn2cc(C(=O)c3ccc(F)cc3)c(=O)c3cc4c(cc32)OCCO4)cc1 | -57.1%
48 | O=C(Nc1ccccc1)c1cc(Cl)nc2ccccc12 | 10.5%
49 | CC(=C\C(=O)O)/C(=C\c1cccc2ccccc12)C(=O)O | 5.81%
50 | Cc1cccc(NC(=O)/C(C#N)=C/c2ccc[nH]2)c1C | 24.9%
51 | O=C(CN(Cc1ccco1)C(=O)c1ccc(Cl)cc1)Nc1ccc(Cl)c(Cl)c1 | 1.39%
52 | Cc1ccc(S(=O)(=O)Nc2ccccc2C(=O)N2CCCCC2C)c(C)c1NS(C)(=O)=O (stereo not shown) | 13.3%
53 | O=C(NCc1ccccc1)c1c[nH]c2cc3c(cc2c1=O)OCCO3 | 2.64%
54 | O=C(Cc1ccccc1)N/N=C/c1cc(Br)c(Br)o1 | 22.1%
55 | COc1cc(NC(=O)c2ccc(C)cc2C)ccc1NC(=O)c1cc2ccccc2o1 | 6.61%
